Here are results for eight molecules from patent US20260034244A1 (PANOLOS BIOSCIENCE, published 2026).

Experiment [1] has as its target T1, PLGF (UniProt P49763-2 19-149, limits assumed).
T1 construct: also called placental growth factor
T1 sequence (looked up): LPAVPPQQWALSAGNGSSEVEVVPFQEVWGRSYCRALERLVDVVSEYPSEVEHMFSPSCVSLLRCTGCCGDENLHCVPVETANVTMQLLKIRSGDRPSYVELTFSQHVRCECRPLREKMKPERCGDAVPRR
The experiment is described as follows: BLI (Octet), fusion captured on AHC sensor; fold increase vs VEGF-Grab3 (Samsung Biologics).

In experiment [2] the target is T2, VEGF-A (UniProt P15692-4 27-191, limits assumed).
T2 construct: Analyte at 40, 20, 10 nM; also called vascular endothelial growth factor A
T2 sequence (looked up): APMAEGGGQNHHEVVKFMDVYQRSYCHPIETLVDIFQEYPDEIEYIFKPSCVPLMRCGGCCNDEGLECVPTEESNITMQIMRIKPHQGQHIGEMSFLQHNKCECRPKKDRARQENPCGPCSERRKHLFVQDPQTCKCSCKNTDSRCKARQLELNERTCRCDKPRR
The experiment is described as above.

Experiment [3] has as its target T1, PLGF. The experiment is described as follows: BLI (Octet), fusion captured on AHC sensor; fold increase vs VEGF-Grab3 (Panolos Bioscience).
The target of experiment [4] is T2, VEGF-A. Described as above.
In experiment [5] the target is T3, VEGF-A (UniProt P15692-4 27-191, limits assumed).
T3 construct: also called vascular endothelial growth factor A
T3 sequence (looked up): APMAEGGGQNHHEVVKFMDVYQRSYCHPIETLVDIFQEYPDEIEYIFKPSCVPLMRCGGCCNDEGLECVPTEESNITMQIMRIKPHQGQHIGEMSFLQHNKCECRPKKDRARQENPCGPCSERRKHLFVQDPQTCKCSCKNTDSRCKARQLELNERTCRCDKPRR
In words: BLI Octet; fold increase vs C88.

Experiment [6] addresses T4, PLGF (UniProt P49763-2 19-149, limits assumed).
T4 construct: also called placental growth factor
T4 sequence (looked up): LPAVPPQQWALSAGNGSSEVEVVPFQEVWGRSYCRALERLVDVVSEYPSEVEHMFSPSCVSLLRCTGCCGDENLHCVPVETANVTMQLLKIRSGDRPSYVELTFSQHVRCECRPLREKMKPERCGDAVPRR
In words: BLI Octet; fold increase vs C88.

In experiment [7] the target is T3, VEGF-A. In words: BLI Octet RED96e, AHC capture.
Experiment [8] has as its target T4, PLGF. In words: BLI Octet RED96e, AHC capture.
Experiment [9] concerns the target VEGF-A (UniProt P15692). In words: cell-based or functional assay.

B1: C47 (Fc fusion)
chain: EFGRPFVEMYSEIPEIIHMTEGRELVIPCRVTSPNITVTLKKFPLDTLIPDGKRIIWDSRKGFIISNATYKEIGLLTCEATVNGHLYKTNYLTHRQTNTIIDVQISTPSPVCLLRGHTLVLNCTATTPLNTRVQMTWSYPDEKNKNASVRRRIDQSNSHANIFYSVLTIDKMQNKDKGLYTCRVRSGPSFKSVNTSVHIYDGCKVDKKV[gap - human IgG1 Fc with C220S H224Y (EU numbers)]
notes: Disulfide bond variant based on VEGF-Grab3
With B1, the “Fold (KD)” value in [1] was 2.22 fold; in [2], 0.19 fold; in experiment [3] it was 1.55 fold; in [4], 0.7 fold. Besides, the “Fold (kdis)” value worked out at 2.58 fold in experiment [1], 0.18 fold in [2], 2.11 fold in [3] and 0.77 fold in experiment [4]. Further, the “Fold (kon)” value in experiment [1] came out at 0.86 fold; in experiment [2], 1.04 fold; in [3], 0.74 fold; in experiment [4], 0.91 fold.

B2: C49 (Fc fusion)
chain: EFGRPFVEMYSEIPEIIHMTEGRELVIPCRVTSPNITVTLKKFPLDTLIPDGKRIIWDSRKGFIISNATYKEIGLLTCEATVNGHLYKTNYLTHRQTNTIIDVQISTPSPVTLCRGHTLVLNCTATTPLNTRVQMTWSYPDEKNKNASVRRRIDQSNSHANIFYSVLTIDKMQNKDKGLYTCRVRSGPSFKSVNTSVHIYDCSKVDKKV[gap - human IgG1 Fc with C220S H224Y (EU numbers)]
notes: as for B1
With B2, the “Fold (KD)” value amounted to 2.01 fold in experiment [1], 0.38 fold in experiment [2], 1.4 fold in experiment [3] and 1.43 fold in experiment [4]. Further, the “Fold (kdis)” value in [1] was determined as 1.96 fold; in experiment [2], 0.34 fold; in [3] it was 1.6 fold; in experiment [4] it was 1.44 fold. Moreover, the “Fold (kon)” value came to 1.03 fold in experiment [1], 1.14 fold in experiment [2], 0.88 fold in [3] and 0.99 fold in experiment [4].

B3: C50 (Fc fusion)
chain: EFGRPFVEMYSEIPEIIHMTEGRELVIPCRVTSPNITVTLKKFPLDTLIPDGKRIIWDSRKGFIISNATYKEIGLLTCEATVNGHLYKTNYLTHRQTNTIIDVQISTPSPVTLLCGHTLVLNCTATTPLNTRVQMTWSYPDEKNKNASVRRRIDQSNSHANIFYSVLTIDKMQNKDKGLYTCRVRSGPSFKSVNTSVHICDGSKVDKKV[gap - human IgG1 Fc with C220S H224Y (EU numbers)]
notes: Disulfide bond variant based on VEGF-Grab3; R244C/Y329C
Take B3: the “Fold (KD)” value stood at 4.26 fold in [1], 0.08 fold in experiment [2], 2.98 fold in experiment [3] and 0.3 fold in [4]. Further, the “Fold (kdis)” value in experiment [1] turned out to be 1.75 fold; in experiment [2], 0.04 fold; in experiment [3], 1.43 fold; in experiment [4] it was 0.16 fold. The “Fold (kon)” value in [1] came to 2.43 fold; in [2], 2.16 fold; in experiment [3], 2.08 fold; in experiment [4] it was 1.89 fold.

B4: C48 (Fc fusion)
chain: EFGRPFVEMYSEIPEIIHMTEGRELVIPCRVTSPNITVTLKKFPLDTLIPDGKRIIWDSRKGFIISNATYKEIGLLTCEATVNGHLYKTNYLTHRQTNTIIDVQISTPSPVTLCRGHTLVLNCTATTPLNTRVQMTWSYPDEKNKNASVRRRIDQSNSHANIFYSVLTIDKMQNKDKGLYTCRVRSGPSFKSVNTSVHICDGSKVDKKV[gap - human IgG1 Fc with C220S H224Y (EU numbers)]
notes: Disulfide bond variant based on VEGF-Grab3; L243C/Y329C
In the case of B4, the “Fold (KD)” value in experiment [1] worked out at 3.23 fold; in [2], 0.26 fold; in experiment [3] it was 2.26 fold; in [4], 0.95 fold. For the same molecule, the “Fold (kdis)” value in [1] was 2.1 fold; in experiment [2], 0.19 fold; in experiment [3], 1.72 fold; in experiment [4], 0.83 fold. The “Fold (kon)” value in experiment [1] came to 1.54 fold; in experiment [2], 1.31 fold; in experiment [3], 1.31 fold; in [4], 1.15 fold.

B5: C51 (Fc fusion)
chain: EFGRPFVEMYSEIPEIIHMTEGRELVIPCRVTSPNITVTLKKFPLDTLIPDGKRIIWDSRKGFIISNATYKEIGLLTCEATVNGHLYKTNYLTHRQTNTIIDVQISTPSPVTLLRGHTLVLNCTATTPLNTRVQMTWSYPDEKNKNASVRRRIDQSNSHANIFYSVLTIDKMQCKDKGLYTCRVRSGPSFKSVNTSVHICDGSKVDKKV[gap - human IgG1 Fc with C220S H224Y (EU numbers)]
notes: Disulfide bond variant based on VEGF-Grab3; N303C/Y329C
On to B5, for which the “Fold (KD)” value is 3.41 fold in experiment [1], 0.1 fold in experiment [2], 2.39 fold in [3] and 0.39 fold in [4]. Besides, the “Fold (kdis)” value came to 2.77 fold in experiment [1], 0.06 fold in experiment [2], 2.26 fold in [3] and 0.24 fold in experiment [4]. Moreover, the “Fold (kon)” value in experiment [1] came out at 1.23 fold; in experiment [2], 1.85 fold; in experiment [3], 1.05 fold; in [4], 1.62 fold.

B6: C109 (Fc fusion)
chain: EFGRPFVEMYSEIPEIIHMTEGRELVIPCRVTSPNITVTLKKFPLDTLIPDGKRIIWDSRKGFIISNATYKEIGLLTCEATVNGHLYKTNYLTHRQTNTIIDVQISTPRPVKLLRGHTLVLNCTATTPLNTRVQMTWSYPDEKNKRASVRRRIDQSNSHANIFYSVLTIDKMQNKDKGLYTCRVRSGPSFKSVNTSVHIYDGSKVDKKV[gap - human IgG1 Fc with changes]
notes: Based on C88; IgG1 Fc
For B6, in experiment [5], the “Fold (KD)” value was 0.23 fold, the “Fold (kdis)” value was determined as 0.25 fold and the “Fold (kon)” value was 0.9 fold. Besides, in experiment [6], the “Fold (KD)” value is 0.83 fold, the “Fold (kdis)” value worked out at 0.62 fold and the “Fold (kon)” value worked out at 1.34 fold. In [7], the Kd was found to be 0.267 nM, the koff came out at 0.000139 s⁻¹ and the kon was 521000 M⁻¹ s⁻¹. In [8], binding was characterised by a dissociation constant (Kd) of 0.247 nM, the koff was 0.000402 s⁻¹ and the kon stood at 1.63e+06 M⁻¹ s⁻¹.

B7: C111 (Fc fusion)
chain: EFGRPFVEMYSEIPEIIHMTEGRELVIPCRVTSPNITVTLKKFPLDTLIPDGKRIIWDSRKGFIISNATYKEIGLLTCEATVNGHLYKTNYLTHRQTNTIIDVQISTPRPVKLLRGHTLVLNCTATTPLNTRVQMTWSYPDEKNKRASVRRRIDQSNSHANIFYSVLTIDKMQNKDKGLYTCRVRSGPSFKSVNTSVHIYDEGSSGGSSGEPKS[gap - human IgG1 Fc and a few adjoining residues]
notes: Based on C88; IgG1 Fc
For B7, in experiment [5], the “Fold (KD)” value turned out to be 1.62 fold, the “Fold (kdis)” value came out at 1.34 fold and the “Fold (kon)” value was found to be 1.21 fold. Besides, in experiment [6], the “Fold (KD)” value is 1.18 fold, the “Fold (kdis)” value stood at 0.63 fold and the “Fold (kon)” value is 1.87 fold. Further, in experiment [7], binding was put at a Kd of 0.0375 nM, the koff worked out at 2.63e-05 s⁻¹ and the on-rate constant (kon) was found to be 699000 M⁻¹ s⁻¹. This molecule also gave an IC50 (µg/ml), luciferase reporter, KDR/NFAT-RE HEK293 cells in experiment [9] of 0.0488 µg/mL. In experiment [8], this molecule had a Kd of 0.174 nM, a koff of 0.000393 s⁻¹ and a kon of 2.27e+06 M⁻¹ s⁻¹.

B8: C108 (Fc fusion)
chain: EFGRPFVEMYSEIPEIIHMTEGRELVIPCRVTSPNITVTLKKFPLDTLIPDGKRIIWDSRKGFIISNATYKEIGLLTCEATVNGHLYKTNYLTHRQTNTIIDVQISTPRPVKLLRGHTLVLNCTATTPLNTRVQMTWSYPDEKNKRASVRRRIDQSNSHANIFYSVLTIDKMQNKDKGLYTCRVRSGPSFKSVNTSVHIYDGSSG[gap - human IgG1 Fc with changes]
notes: Based on C88; IgG1 Fc
Consider B8, for which, in experiment [5], the “Fold (KD)” value was determined as 0.19 fold, the “Fold (kdis)” value is 0.23 fold and the “Fold (kon)” value was found to be 0.84 fold. In addition, in experiment [6], the “Fold (KD)” value was found to be 0.87 fold, the “Fold (kdis)” value is 0.33 fold and the “Fold (kon)” value was determined as 2.61 fold. Further, in experiment [7], the affinity, expressed as Kd, was 0.314 nM; the koff came out at 0.000152 s⁻¹; the kon amounted to 483000 M⁻¹ s⁻¹. Moreover, the IC50 (µg/ml), luciferase reporter, KDR/NFAT-RE HEK293 cells in experiment [9] is 0.0519 µg/mL. In [8], the dissociation constant (Kd) worked out at 0.236 nM, the koff turned out to be 0.000746 s⁻¹ and the on-rate (kon) turned out to be 3.16e+06 M⁻¹ s⁻¹.
